This note sets out measurements from article PMC6919601, “Identification of Plasmodium dipeptidyl aminopeptidase allosteric inhibitors by high throughput screening” (PLoS ONE, 2019).

Among all 110,000 compounds or so, about 230 (0.21%) showed an effect of 50% or more. The list shows a part of the results.
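Further: 30 min substrate incubation versus DMSO and 10 µM JCP410 controls.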

This experiment deals with DPAP1 (Plasmodium falciparum, UniProt Q8IIJ9). The experiment can be described thus: primary screen, percent inhibition; read by cleavage of a fluorogenic dipeptide substrate; higher = more effect of the substance. More on the design: species or system P. falciparum D10 trophozoite lysates; single well.
Sequence of DPAP1 (Q8IIJ9 whole entry, looked up): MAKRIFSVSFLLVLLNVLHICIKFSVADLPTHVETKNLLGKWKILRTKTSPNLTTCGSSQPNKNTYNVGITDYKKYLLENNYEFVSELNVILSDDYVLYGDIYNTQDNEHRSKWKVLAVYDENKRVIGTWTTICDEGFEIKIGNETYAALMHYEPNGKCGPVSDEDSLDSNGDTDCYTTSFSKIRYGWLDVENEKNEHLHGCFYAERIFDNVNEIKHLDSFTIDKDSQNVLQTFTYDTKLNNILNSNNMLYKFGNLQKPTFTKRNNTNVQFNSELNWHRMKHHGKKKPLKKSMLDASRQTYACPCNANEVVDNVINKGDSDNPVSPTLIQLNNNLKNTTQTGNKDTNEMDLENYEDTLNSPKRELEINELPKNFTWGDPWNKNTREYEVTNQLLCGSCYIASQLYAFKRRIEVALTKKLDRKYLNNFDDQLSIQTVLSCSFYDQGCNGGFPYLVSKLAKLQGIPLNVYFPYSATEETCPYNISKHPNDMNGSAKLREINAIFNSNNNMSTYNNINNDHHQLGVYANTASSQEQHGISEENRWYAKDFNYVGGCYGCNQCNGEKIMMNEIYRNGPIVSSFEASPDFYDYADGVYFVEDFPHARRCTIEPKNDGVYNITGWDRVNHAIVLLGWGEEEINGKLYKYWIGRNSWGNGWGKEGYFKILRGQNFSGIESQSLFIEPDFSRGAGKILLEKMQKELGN
For `O=C1CC(N2CCc3ccccc32)C(=O)N1c1ccc(F)cc1` (stereo not shown), the “% Inhibition @ 10 uM” value is reported as -4.15%.

As for `CCOc1cccc2c1OC(c1ccc(F)c(F)c1)N1N=C(c3ccc(C)o3)CC21` (stereo not shown), the “% Inhibition @ 10 uM” value stood at 10.7%.

As to `C=CCNc1nc(Cl)nc(N2CCSCC2)n1`, the “% Inhibition @ 10 uM” value is recorded as 3.15%.

As to `Cc1ccc(OCC(=O)Nc2nnc(C(C)C)s2)c(C)c1`, the “% Inhibition @ 10 uM” value is listed as 0.685%.

On to `CCN(CC)C(=O)c1ccc(CS(=O)(=O)c2ccccc2OC)o1`, for which the “% Inhibition @ 10 uM” value is -3.09%.

`O=C(NCCc1ccccc1)c1cnc2ccccc2n1`: the “% Inhibition @ 10 uM” value is recorded as -5.72%.

In the case of `Cc1[nH]nc2c1C(c1ccc(F)c(Br)c1)C(C#N)=C(N)O2` (stereo not shown), the “% Inhibition @ 10 uM” value stood at 1.37%.

For `COc1cc(/C=C2\NC(=O)N(Cc3ccc(Cl)cc3)C2=O)cc(Cl)c1OCC(=O)O`, the “% Inhibition @ 10 uM” value turned out to be 8.37%.

In the case of `COc1ccc(C2C(C(=O)Nc3cccnc3)=C(C)Nc3nc(-c4cccs4)nn32)c(OC)c1` (stereo not shown), the “% Inhibition @ 10 uM” value is on record as -5.35%.

`COc1ccccc1CN1CCN(Cc2ccccc2C(F)(F)F)CC1`: the “% Inhibition @ 10 uM” value stood at 0.993%.

`Cc1cc(OCC(=O)NCc2nc(-c3ccccc3)no2)cc(C)c1Br`: the “% Inhibition @ 10 uM” value is listed as -1.22%.

On to `CCOC(=O)C1=C(CN2CCN(c3ccc(Cl)nn3)CC2)NC(=O)NC1c1cccs1` (stereo not shown), for which the “% Inhibition @ 10 uM” value is recorded as -0.913%.

For `C=CCn1c(=O)n(Cc2ccccc2)c(=O)c2c3c(sc21)CCCC3`, the “% Inhibition @ 10 uM” value turned out to be 0.685%.

As to `COc1cc2c(cc1OC)CN(Cc1ccc(-c3ccccc3)cc1)CC2`, the “% Inhibition @ 10 uM” value is listed as -1.92%.

Turning to `COc1ccc(-c2csc(Nc3ccc(N)cc3)n2)cc1OC`, the “% Inhibition @ 10 uM” value was determined as 3.35%.

Regarding `CC1CCN(C(=O)CN2Cc3ccccc3C2=O)CC1`, the “% Inhibition @ 10 uM” value came out at 2.37%.

On to `Cc1nnc2sc(NC(=O)COc3ccccc3F)nn12`, for which the “% Inhibition @ 10 uM” value came out at 7.1%.

`O=C(Nc1ccccc1)Nc1ccc(S(=O)(=O)N2CCCC2)cc1`: the “% Inhibition @ 10 uM” value is reported as 9.53%.

As for `O=C(Cn1nc(C(F)(F)F)cc1C1CC1)Nc1ccc(F)cc1`, the “% Inhibition @ 10 uM” value is -1.36%.

For `O=C(Nc1ccccc1Cl)NC1CCCc2ccccc21` (stereo not shown), the “% Inhibition @ 10 uM” value is given as -4.82%.

For the molecule `c1ccc(-c2csc(-c3c[nH]c4ccccc34)n2)cc1`, the “% Inhibition @ 10 uM” value is listed as 0.147%.

As for `O=C(O)c1cc(-c2ccccc2)nc2c(Cl)ccc(Cl)c12`, the “% Inhibition @ 10 uM” value is reported as 3.72%.

Turning to `CCCOc1ccc(Br)cc1C1NC(=O)NC(c2ccccc2)=C1C(C)=O` (stereo not shown), the “% Inhibition @ 10 uM” value was -0.105%.

Regarding `Nc1ccc2c(c1)C(=O)N(CC1CCCO1)C2=O` (stereo not shown), the “% Inhibition @ 10 uM” value is recorded as 0.189%.

As to `O=C(O)c1ccccc1C(=O)n1cnc2ccccc21`, the “% Inhibition @ 10 uM” value was -4.62%.

Turning to `COc1ccc(/C=C\C=C\c2ccccc2)cc1`, the “% Inhibition @ 10 uM” value is -1.38%.

For the molecule `COc1ccc(C2=NN(c3ccccc3)C(c3ccccc3C(F)(F)F)C2)cc1` (stereo not shown), the “% Inhibition @ 10 uM” value worked out at 1.88%.

For the molecule `CCn1cc(CN(Cc2ccccc2)C(=S)NC)c2ccccc21`, the “% Inhibition @ 10 uM” value worked out at 4.42%.

With `c1ccc(OCc2nnc3sc(-c4ccccc4)nn23)cc1`, the “% Inhibition @ 10 uM” value was found to be 9.4%.

As for `Cc1ccccc1OCc1nc2c3cnn(-c4cc(Cl)ccc4Cl)c3ncn2n1`, the “% Inhibition @ 10 uM” value is -6.5%.

As for `CCCC(=O)NCn1nnc(-c2ccc(OC)cc2)n1`, the “% Inhibition @ 10 uM” value is -0.834%.

On to `CCO/C(O)=C1\C(C)=NC2=C(C(=O)c3ccccc32)C1c1cccc2ccccc12` (stereo not shown), for which the “% Inhibition @ 10 uM” value is recorded as 2.24%.

Turning to `Cn1nccc1C(=O)NC1C2CC3CC(C2)CC1C3` (stereo not shown), the “% Inhibition @ 10 uM” value was found to be 1.27%.

Consider `Cc1ccnc(NC(=O)C2CCCN(S(=O)(=O)c3c[nH]cn3)C2)c1` (stereo not shown), for which the “% Inhibition @ 10 uM” value was -1.89%.

Regarding `CC(C)C[C@H](NC(=O)c1ccc(N2CCN(C)CC2)cc1)C(=O)N1CCN(C)CC1`, the “% Inhibition @ 10 uM” value turned out to be 6.4%.

Turning to `CC(C)(C)NC(=O)COc1ccc(S(=O)(=O)NC2CCCCC2)cc1`, the “% Inhibition @ 10 uM” value was found to be 4.74%.

Consider `COc1ccc(CN2CC(C)OC(C)C2)cc1C` (stereo not shown), for which the “% Inhibition @ 10 uM” value is 1.87%.

As to `Cc1cc(C)c2c(N)c(C(=O)c3ccc(Cl)cc3)sc2n1`, the “% Inhibition @ 10 uM” value amounted to 4.66%.

Take `CCN(CC)CCN1C(=O)C(O)=C(C(=O)c2ccc3c(c2)OCCO3)C1c1cccc2ccccc12` (stereo not shown): the “% Inhibition @ 10 uM” value was -0.0619%.

As for `CC1CCc2c(sc3c2c2nnc(S)n2c2nnc(S)n32)C1` (stereo not shown), the “% Inhibition @ 10 uM” value is reported as -0.603%.

With `Cc1nn(C)c(C(=O)NC23CC4CC(CC(C4)C2)C3)c1Br`, the “% Inhibition @ 10 uM” value came to 20.2%.

`CC(=O)c1ccc(OCC(O)CN2CCN(Cc3ccc4c(c3)OCO4)CC2)cc1` (stereo not shown): the “% Inhibition @ 10 uM” value is on record as -5.08%.

On to `Cc1ccc(NC(=O)CCc2c(C)nc3ccc(C)cn3c2=O)nc1`, for which the “% Inhibition @ 10 uM” value was 2.39%.

As to `CCC/N=c1\c(NS(=O)(=O)c2ccc(OC)c(Cl)c2)c(O)oc2ccccc12`, the “% Inhibition @ 10 uM” value is on record as -1.27%.

Take `Cc1ccccc1C(=O)Nc1ccc(S(N)(=O)=O)cc1`: the “% Inhibition @ 10 uM” value was 0.709%.

Consider `CN(C)c1ccc(/C=C(\C#N)c2nc(-c3ccc([N+](=O)[O-])cc3)cs2)cc1`, for which the “% Inhibition @ 10 uM” value stood at 0.247%.

On to `COc1ccc(-c2nnc(NC(=O)c3ccc(C)cc3)s2)cc1`, for which the “% Inhibition @ 10 uM” value was -0.546%.

In the case of `CC1=C(C(=O)Nc2ccccc2C)C(c2cccc(F)c2)n2nc(CCCO)nc2N1` (stereo not shown), the “% Inhibition @ 10 uM” value is on record as -5.67%.

As for `O=C(CC1Sc2ccccc2NC1=O)Nc1ccc2c(c1)OCO2` (stereo not shown), the “% Inhibition @ 10 uM” value is given as -1.86%.

Turning to `O=C1N/C(=C/c2ccsc2)C(=O)N1Cc1ccccc1F`, the “% Inhibition @ 10 uM” value came out at 1.63%.

On to `O=C(Nc1ccc(S(=O)(=O)N2CCOCC2)cc1)C1CC1`, for which the “% Inhibition @ 10 uM” value is reported as -4.14%.

In the case of `Cc1ocnc1C(=O)O`, the “% Inhibition @ 10 uM” value is -4.74%.

For `CCc1ccc(-c2cc(C(=O)NCCC(C)C)[nH]n2)cc1`, the “% Inhibition @ 10 uM” value is 0.514%.

In the case of `O=C1NC(=O)/C(=C\c2cn(CC(=O)N3CCOCC3)c3ccccc23)S1`, the “% Inhibition @ 10 uM” value stood at 2.09%.

Take `CC(C)(C)C1CCC(N2CCN(CCO)CC2)CC1` (stereo not shown): the “% Inhibition @ 10 uM” value is -0.0908%.

Consider `Cc1nn(C(C)C(=O)NCc2ccco2)c(=O)c2cc3occc3n12` (stereo not shown), for which the “% Inhibition @ 10 uM” value was -2%.

For the molecule `COCCN1C(=O)/C(=C\c2cccc(OC)c2O)C(C(=O)OC)=C1C`, the “% Inhibition @ 10 uM” value worked out at 3.43%.

Turning to `COc1ccc(Cl)cc1NC(=O)CCC(=O)Nc1cc(Cl)ccc1OC`, the “% Inhibition @ 10 uM” value is reported as 1.89%.

`CCN(CC)c1ccc(/C=C2\C(=O)NC(=S)N(c3cccc(Cl)c3)C2=O)c(O)c1`: the “% Inhibition @ 10 uM” value is recorded as -4.98%.

`Cc1ccc(Oc2nc3c(C)cccn3c(=O)c2/C=C(\C#N)C(=O)NC2CCCCC2)cc1`: the “% Inhibition @ 10 uM” value is -11.1%.

Regarding `CCOc1cccc2cc(S(=O)(=O)c3ccc(F)c(Cl)c3)c(=O)oc12`, the “% Inhibition @ 10 uM” value is -1.3%.

Regarding `CC(=O)CC(Nc1ccccc1)c1ccccc1` (stereo not shown), the “% Inhibition @ 10 uM” value is -8.51%.

Consider `CCOc1ccc2nc(NC(=O)CSc3nc(SC)ns3)sc2c1`, for which the “% Inhibition @ 10 uM” value came out at 5.12%.

Take `COc1ccc(C2(C(=O)Nc3ccc(C(=O)Nc4cc(C)ccc4OC)cc3)CCOCC2)cc1`: the “% Inhibition @ 10 uM” value is recorded as 9.97%.
